Experimental data as given in the supplement of paper PMC3334620.
In all, about 33,000 sequences were measured (“E-score (-0.5 to 0.5)”: median about -0.054, highest 2% from about 0.35 on). This is one part of the list.

The sequences below were run against T1, Stb5 (UniProt P38699) (assay: PBM E-score (8-mer binding enrichment) (E-score (-0.5 to 0.5)); higher = stronger / more preferred TF binding; most listed sequences are background and not binding sites). Conditions: protein concentration: 200 nM; construct: GST-full length.
T1 sequence: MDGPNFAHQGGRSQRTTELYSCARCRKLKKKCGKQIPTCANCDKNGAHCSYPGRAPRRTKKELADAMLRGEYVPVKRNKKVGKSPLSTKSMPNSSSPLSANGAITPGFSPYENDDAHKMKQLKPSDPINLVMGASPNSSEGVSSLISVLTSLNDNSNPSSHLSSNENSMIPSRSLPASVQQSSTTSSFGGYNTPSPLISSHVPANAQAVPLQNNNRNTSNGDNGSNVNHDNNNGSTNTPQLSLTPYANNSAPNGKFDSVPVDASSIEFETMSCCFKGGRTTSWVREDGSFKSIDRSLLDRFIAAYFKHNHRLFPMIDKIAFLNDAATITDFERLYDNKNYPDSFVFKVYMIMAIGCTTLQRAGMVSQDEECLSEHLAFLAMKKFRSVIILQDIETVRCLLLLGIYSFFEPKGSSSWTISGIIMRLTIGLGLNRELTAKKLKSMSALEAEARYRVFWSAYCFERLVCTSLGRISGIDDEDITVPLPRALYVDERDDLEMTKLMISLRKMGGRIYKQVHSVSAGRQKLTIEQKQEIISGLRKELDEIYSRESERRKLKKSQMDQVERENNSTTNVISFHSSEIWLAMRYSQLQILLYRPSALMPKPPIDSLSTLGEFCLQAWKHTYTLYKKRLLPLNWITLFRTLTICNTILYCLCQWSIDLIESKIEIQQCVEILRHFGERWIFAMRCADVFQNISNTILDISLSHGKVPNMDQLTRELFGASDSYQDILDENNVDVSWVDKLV
Outline: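 For each ungapped eight-base word taken together with its reverse complement, the Universal PBM Analysis Suite assigned an E-score. Binding data came from GST-tagged yeast transcription factors, applied at about 100-200 nM, on universal all-10-mer Agilent arrays made double-stranded by primer extension. Fluorescent anti-GST marked bound protein, and scans were normalised with masliner.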

Row | Sequence | PBM E-score
1 | CAACTTCA | -0.224
2 | AAAGGGCA | -0.138
3 | CTGCTTAC | -0.0797
4 | ACAACAGC | 0.0134
5 | AGCCCACG | -0.0497
6 | GAACCCGA | 0.0501
7 | CAGAACGC | -0.0861
8 | GCACTACC | -0.055
9 | AAAAGAAA | 0.134
10 | GCAATCCC | 0.282
11 | GAATGAAC | -0.141
12 | AGGTAACA | -0.111
13 | ACAGTCGA | -0.143
14 | AAGCAGCG | 0.0849
15 | CTGTTCTC | -0.0311
16 | ATTCCTGC | -0.148
17 | CGACAAAG | -0.0343
18 | AAGTTTTC | 0.0659
19 | CGCGAACC | 0.044
20 | CAAATCTA | -0.239
21 | GAGTCTCC | 0.084
22 | CCCTCGGC | 0.0313
23 | GCAAACAC | 0.0822
24 | ACCTACAG | -0.00245
25 | CTCCGTGA | 0.19

Row | Sequence | PBM E-score
26 | GTACTAAC | 0.0231
27 | CATCAAGG | -0.222
28 | CCAATTAC | -0.0408
29 | GTCGCTGA | -0.121
30 | GACCACAA | -0.0305
31 | AATGGTAG | -0.0922
32 | ACATACAG | -0.102
33 | GAGACTAC | -0.214
34 | AAGACTGA | -0.216
35 | CCGAAAAC | 0.123
36 | ACCCTTTA | 0.00637
37 | CAATATCG | -0.0398
38 | AGCCCCCC | -0.282
39 | ACGGCAAA | 0.235
40 | GCTTAGGA | -0.0154
41 | ATTATAAG | 0.11
42 | CGGAGCCA | 0.294
43 | CCATTACA | -0.0115
44 | GAGGGCAC | -0.252
45 | CATCGTGC | -0.0642
46 | AACCGTCG | 0.212
47 | CCTATGCG | -0.0329
48 | ATCCCGCA | 0.181
49 | GTCCTTGA | -0.124
50 | AAAAGCGA | 0.0828

Row | Sequence | PBM E-score
51 | AACCCCCC | 0.0126
52 | ATGCCCCC | -0.0359
53 | CGCAGAGC | -0.0211
54 | CTAACTGC | -0.031
55 | GCATCTTA | -0.0706
56 | CTTTAACC | 0.0344
57 | AACTATGC | 0.0185
58 | AAGCCAAA | -0.234
59 | ACGTTGAG | -0.0677
60 | CCGGAAGG | 0.142
61 | TAGAATAA | 0.0848
62 | CATAGCCC | 0.0349
63 | ATAAACTG | -0.00234
64 | CATCTGGC | 0.0795
65 | AAATTATA | 0.212
66 | CATTTCGA | -0.142
67 | GAGCGGGA | 0.249
68 | TCATTGAA | -0.135
69 | CTGGAATC | -0.131
70 | GGGCACAC | -0.0897
71 | CACAGGCC | -0.0705
72 | AAATGCTG | -0.0926
73 | AGCGATGG | -0.0413
74 | CTGGCCGC | -0.147
75 | CTCAGTAA | -0.0363

Row | Sequence | PBM E-score
76 | GAATAAGA | 0.0303
77 | CTTGGTGA | 0.0226
78 | CCTGAGTA | -0.104
79 | AATTAAGC | 0.12
80 | AGTAGTCC | 0.074
81 | GCTCGTGA | -0.0398
82 | ACCACGAT | -0.261
83 | AATTCTTC | 0.213
84 | CTCTAGTA | -0.055
85 | CTCTAACA | -0.103
86 | CATTCTGG | -0.189
87 | CTGAAGGA | -0.15
88 | AAGTGGCG | 0.026
89 | CGATATGC | 0.0672
90 | GGTTCTAA | 0.269
91 | CATTACAC | -0.0322
92 | CCTCTTTC | -0.126
93 | CAGTTTGG | -0.175
94 | GCGTGAGC | 0.11
95 | GTCCACCA | 0.0514
96 | ATTCCCGA | 0.379
97 | ACGTTTAC | -0.111
98 | AATTAAAA | -0.0448
99 | CATACACA | -0.231
100 | TGTTTTAA | 0.0881

Row | Sequence | PBM E-score
101 | CGAATGGA | -0.115
102 | AATGAATG | -0.0477
103 | CCTCGGTC | 0.0945
104 | CTTAGAAC | 0.0364
105 | CATTAGAG | -0.118
106 | AGACTCAA | -0.176
107 | CTAAAACA | 0.149
108 | ATGTCGAA | -0.0864
109 | CATCCGGA | 0.235
110 | ACCCACCA | -0.0841
111 | TACACTCA | -0.284
112 | GGGGCGGA | 0.293
113 | AGAGCCTG | -0.307
114 | GCAATGCA | -0.0992
115 | ACTGGTTG | -0.0594
116 | GAAAATGC | -0.14
117 | AGTCAGAC | -0.126
118 | ATCAACGG | 0.203
119 | CCTATCAG | -0.131
120 | CAGATACC | -0.0513
121 | AGCCGATC | 0.0924
122 | AACCCCTA | 0.0625
123 | GCCAGCGC | -0.00309
124 | ACAATTAC | -0.226
125 | TCTAAGAA | 0.0218

Row | Sequence | PBM E-score
126 | ACTCGTAG | -0.234
127 | AGACCGCG | 0.297
128 | GCCGGGCA | 0.236
129 | AGAGATAG | -0.105
130 | ATACTTGA | -0.181
131 | AAGGTACG | -0.0362
132 | ACTTTGGG | -0.0994
133 | GTGAATGA | 0.0669
134 | CAGACTGC | -0.228
135 | CCCTTGAA | -0.0496
136 | ATCCACCG | 0.219
137 | ACCGCTAT | 0.33
138 | TAAGGAGA | -0.00153
139 | ATTTGTGC | -0.0961
140 | CCACCTGG | -0.266
141 | CGTGGTAA | -0.172
142 | ATGTTTCG | -0.0593
143 | AGTCTTAC | -0.185
144 | ACGTCCGA | 0.333
145 | AGCTTGCA | -0.0865
146 | AAGTTTGA | -0.112
147 | CACGAGCC | -0.141
148 | AATCGTGT | 0.116
149 | AAGATGTC | -0.0504
150 | AAGCACAT | -0.0767

Row | Sequence | PBM E-score
151 | CTTTCCAA | 0.0736
152 | AACTCGGA | 0.166
153 | AGACGTCA | -0.2
154 | CATGGTGG | -0.116
155 | GCAGACCC | -0.0859
156 | CGTATTCC | 0.0717
157 | AGTCCATA | -0.172
158 | AATCTTAC | 0.065
159 | CGGCAGCC | 0.0878
160 | GATCCGAC | 0.23
161 | ACTCGGCT | -0.161
162 | CTCCAGGC | -0.0397
163 | CTTGCGGC | 0.14
164 | AATCCCGG | 0.352
165 | GGCAGCAA | -0.00028
166 | CTTCTGCA | 0.0835
167 | GCGAACGA | -0.206
168 | ATGCGACA | -0.026
169 | ACACCCTC | -0.162
170 | GGCCGGCC | 0.15
171 | ACAATTTA | -0.148
172 | AACGCACG | 0.0412
